The values below come from PubChem BioAssay AID1240 (Sanford-Burnham Center for Chemical Genomics, 2008).

The structures appear in SMILES notation. About 800 (1.6%) of roughly 50,000 compounds showed an effect of 50% or more. The list shows a part of the results.

For this experiment, the target named is Bcl-2-like protein 10 (Homo sapiens) (UniProt Q9HD36). The experiment can be described thus: Phenotype converters, Bcl-B/TR3 peptide binding displacement, primary biochemical FP (AID 1240).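 Note: 0% = Bcl-B with tracer peptide and DMSO and 100% = tracer peptide lacking Bcl-B.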 The settings on record: GST-Bcl-B / FITC-TR3 peptide fluorescence polarization; stronger effect = higher value; compound at 3.75 mg/L.
Sequence of UniProt Q9HD36 (Q9HD36 whole entry, looked up): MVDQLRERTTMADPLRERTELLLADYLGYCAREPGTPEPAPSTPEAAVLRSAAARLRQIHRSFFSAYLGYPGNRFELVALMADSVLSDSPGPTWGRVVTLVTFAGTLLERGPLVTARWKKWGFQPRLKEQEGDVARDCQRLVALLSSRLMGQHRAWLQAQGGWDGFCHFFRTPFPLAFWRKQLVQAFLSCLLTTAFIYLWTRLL
With `COc1ccc(/C=C(\C(=O)c2ccccc2)c2nc3ccccc3s2)cc1`, the displacement is -3.8%.

For the molecule `CCOc1ccccc1NS(=O)(=O)c1ccc(OC)cc1`, the displacement was -13.3%.

As to `O=[N+]([O-])c1ccc(CN2CCN(Cc3cc(Br)ccc3O)CC2)cc1`, the displacement amounted to 13.7%.

Turning to `O=[N+]([O-])c1ccc2nc(-c3ccco3)[nH]c2c1`, the displacement turned out to be 13.2%.

With `COc1ccc(OC)c(C2NC(c3cc(OC)ccc3OC)C(C)C(C)(O)C2C)c1` (centres undefined), the displacement was found to be 4.9%.

On to `O=C(N/N=C/c1cccnc1)/C(=C\c1cccs1)NC(=O)c1ccccc1`, for which the displacement was -9.3%.

For `CCOc1ccc(N(CC(=O)Nc2ccc(C)c(Cl)c2)S(C)(=O)=O)cc1`, the displacement is -1.8%.

As for `CC1CCN(Cc2c(O)ccc3c4c(c(=O)oc23)CCC4)CC1`, the displacement came to 12.8%.

For the molecule `O=C(COc1ccccc1)Nc1nc(-c2ccc(S(=O)(=O)N3CCOCC3)cc2)cs1`, the displacement came to 8.5%.

Take `O=C(N/C(=C/c1cccc(Br)c1)C(=O)N1CCOCC1)c1ccccc1`: the displacement was -1.7%.

With `Cc1ccc(C(=O)N/C(=C\c2ccc(-c3cccc([N+](=O)[O-])c3)o2)C(=O)NCCCN(C)C)cc1`, the displacement was -16.5%.

In the case of `COc1ccc(NC(=S)N2CCC(O)(c3cccc(C(F)(F)F)c3)CC2)cc1`, the displacement is -4.5%.

Consider `CCCOC(=O)C1=C(C)NC2=C(C(=O)CCC2)C1c1cc(Br)ccc1OC` (centres undefined), for which the displacement is -3%.

For the molecule `CC1(C)Cc2ccccc2-c2nnc(-c3cccc(N)c3)n21`, the displacement is -9.2%.

Turning to `CCOc1cc(/C=N/NC(=O)c2cc(C34CC5CC(CC(C5)C3)C4)[nH]n2)ccc1O`, the displacement is -7.3%.

As for `c1csc(CNc2ccc(N3CCOCC3)cc2)c1`, the displacement came out at 14.7%.

Regarding `CCOc1ccccc1NC(=O)c1cc2cc([N+](=O)[O-])ccc2oc1=O`, the displacement amounted to 11.2%.

Consider `O=C1c2cccc3cccc(c23)C(=O)N1/N=C/c1ccccc1[N+](=O)[O-]`, for which the displacement turned out to be 7.2%.

Take `O=c1c(/C=C(\O)c2ccccc2)nc2ccccc2n1-c1ccccc1`: the displacement amounted to 10.8%.

Consider `COC(=O)c1ccc(CN(c2ccccc2)S(=O)(=O)c2ccccc2)cc1`, for which the displacement came out at 43%.

As to `COc1cc(/C=N/N=C(\N)c2nonc2N)ccc1O`, the displacement was determined as 5.1%.

As for `O=C(CCc1ccccc1)NCCN1CCOCC1`, the displacement is -5.3%.

Consider `O=C(COc1nc2ccccc2s1)N1c2ccccc2CCc2ccccc21`, for which the displacement was -6.7%.

For `CCN(CC)c1ccc(/C=C2\C(=O)NC(=S)N(c3ccc(F)cc3)C2=O)c(OC)c1`, the displacement was -15.2%.
